Laboratory results: the supplement of paper PMC8728848
The list shows a part of the results.

How the values were obtained:
Experiment in all cases: glycan array binding signal (z-score within array); higher = stronger binding
Settings in all cases: glycan notation: IUPAC condensed, linker removed
Gal(b1-4)Glc = target: Gal(b1-4)Glc
Summary of the method: (§1)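 Glycan array data came from 3228 arrays in the Consortium for Functional Glycomics database, and only arrays with an available protein sequence were kept. Glycan names were put into IUPAC-condensed notation, and columns mapping to the same glycan were averaged. The binding signal is a within-array Z-score, averaged across arrays of one protein sequence run at different concentrations or buffers and across linkers. A negative Z-score can be read as non-binding.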

Gal(b1-4)Glc6S = target: Gal(b1-4)Glc6S
Summary of the method: as §1

Gal(b1-4)GlcNAc = target: Gal(b1-4)GlcNAc
Summary of the method: as §1

[1] = target: Gal(b1-4)GlcNAc(a1-6)Gal(b1-4)GlcNAc
Summary of the method: as §1

Gal(b1-4)GlcNAc(b1-2)Man = target: Gal(b1-4)GlcNAc(b1-2)Man
Summary of the method: as §1

[2] = target: Gal(b1-4)GlcNAc(b1-2)Man(a1-3)Man(b1-4)GlcNAc(b1-4)GlcNAc
Summary of the method: as §1

[3] = target: Gal(b1-4)GlcNAc(b1-2)Man(a1-3)[Gal(b1-4)GlcNAc(b1-2)Man(a1-6)]Man(b1-4)GlcNAc(b1-4)GlcNAc
Summary of the method: as §1

[4] = target: Gal(b1-4)GlcNAc(b1-2)Man(a1-3)[Gal(b1-4)GlcNAc(b1-2)Man(a1-6)]Man(b1-4)GlcNAc(b1-4)[Fuc(a1-6)]GlcNAc
Summary of the method: as §1

[5] = target: Gal(b1-4)GlcNAc(b1-2)Man(a1-3)[Gal(b1-4)GlcNAc(b1-2)Man(a1-6)][Gal(b1-4)GlcNAc(b1-4)]Man(b1-4)GlcNAc(b1-4)[Fuc(a1-6)]GlcNAc
Summary of the method: as §1

[6] = target: Gal(b1-4)GlcNAc(b1-2)Man(a1-3)[Gal(b1-4)GlcNAc(b1-2)Man(a1-6)][GlcNAc(b1-4)]Man(b1-4)GlcNAc(b1-4)[Fuc(a1-6)]GlcNAc
Summary of the method: as §1

[7] = target: Gal(b1-4)GlcNAc(b1-2)Man(a1-3)[GlcNAc(b1-2)Man(a1-6)]Man(b1-4)GlcNAc(b1-4)GlcNAc
Summary of the method: as §1

[8] = target: Gal(b1-4)GlcNAc(b1-2)Man(a1-3)[GlcNAc(b1-4)][Gal(b1-4)GlcNAc(b1-2)Man(a1-6)]Man(b1-4)GlcNAc(b1-4)GlcNAc
Summary of the method: as §1

[9] = target: Gal(b1-4)GlcNAc(b1-2)Man(a1-3)[Man(a1-6)]Man(b1-4)GlcNAc(b1-4)GlcNAc
Summary of the method: as §1

[10] = target: Gal(b1-4)GlcNAc(b1-2)Man(a1-6)Man(b1-4)GlcNAc(b1-4)GlcNAc
Summary of the method: as §1

[11] = target: Gal(b1-4)GlcNAc(b1-2)Man(a1-6)[GlcNAc(b1-2)Man(a1-3)]Man(b1-4)GlcNAc(b1-4)GlcNAc
Summary of the method: as §1

[12] = target: Gal(b1-4)GlcNAc(b1-2)Man(a1-6)[Man(a1-3)]Man(b1-4)GlcNAc(b1-4)GlcNAc
Summary of the method: as §1

[13] = target: Gal(b1-4)GlcNAc(b1-2)[Gal(b1-4)GlcNAc(b1-4)]Man(a1-3)[Gal(b1-4)GlcNAc(b1-2)Man(a1-6)]Man(b1-4)GlcNAc(b1-4)GlcNAc
Summary of the method: as §1

[14] = target: Gal(b1-4)GlcNAc(b1-2)[Gal(b1-4)GlcNAc(b1-4)]Man(a1-3)[Gal(b1-4)GlcNAc(b1-2)[Gal(b1-4)GlcNAc(b1-6)]Man(a1-6)]Man(b1-4)GlcNAc(b1-4)GlcNAc
Summary of the method: as §1

[15] = target: Gal(b1-4)GlcNAc(b1-2)[Gal(b1-4)GlcNAc(b1-4)]Man(a1-3)[GlcNAc(b1-4)][Gal(b1-4)GlcNAc(b1-2)Man(a1-6)]Man(b1-4)GlcNAc(b1-4)GlcNAc
Summary of the method: as §1

[16] = target: Gal(b1-4)GlcNAc(b1-2)[Gal(b1-4)GlcNAc(b1-4)]Man(a1-3)[GlcNAc(b1-4)][Gal(b1-4)GlcNAc(b1-2)[Gal(b1-4)GlcNAc(b1-6)]Man(a1-6)]Man(b1-4)GlcNAc(b1-4)GlcNAc
Summary of the method: as §1

[17] = target: Gal(b1-4)GlcNAc(b1-2)[Gal(b1-4)GlcNAc(b1-6)]Man(a1-6)[Gal(b1-4)GlcNAc(b1-2)Man(a1-3)]Man(b1-4)GlcNAc(b1-4)GlcNAc
Summary of the method: as §1

[18] = target: Gal(b1-4)GlcNAc(b1-2)[Gal(b1-4)GlcNAc(b1-6)]Man(a1-6)[Gal(b1-4)GlcNAc(b1-2)Man(a1-3)]Man(b1-4)GlcNAc(b1-4)[Fuc(a1-6)]GlcNAc
Summary of the method: as §1

B1: PfulAvr4 2 (Pseudocercospora fuligena) (protein)
chain: HHHHHHDYKDDDDKAKPIKPFACPPKDFTTTKCQGPVDCLYANPLSCLGYIQCVCDDDACSTATPYAKSCPTGLAWVEKLKRCDGIKKSACPKKMYEGS
B1 was tested, and the “glycan array binding signal (z-score)” value (Gal(b1-4)Glc) was 0.459, the “glycan array binding signal (z-score)” value (Gal(b1-4)Glc6S) was -0.209 and the “glycan array binding signal (z-score)” value (Gal(b1-4)GlcNAc) was -0.16. The “glycan array binding signal (z-score)” value [1] was -0.269, the “glycan array binding signal (z-score)” value (Gal(b1-4)GlcNAc(b1-2)Man) was 1.54 and the “glycan array binding signal (z-score)” value [2] was 0.015. The “glycan array binding signal (z-score)” value [3] was -0.347, the “glycan array binding signal (z-score)” value [4] was 0.017 and the “glycan array binding signal (z-score)” value [5] was -0.405. The “glycan array binding signal (z-score)” value [6] was -0.397, the “glycan array binding signal (z-score)” value [7] was -0.331 and the “glycan array binding signal (z-score)” value [8] was -0.216. The “glycan array binding signal (z-score)” value [9] was 9.66, the “glycan array binding signal (z-score)” value [10] was -0.207 and the “glycan array binding signal (z-score)” value [11] was -0.282. The “glycan array binding signal (z-score)” value [12] was -0.138, the “glycan array binding signal (z-score)” value [13] was -0.237 and the “glycan array binding signal (z-score)” value [14] was -0.113. For the same binder, the “glycan array binding signal (z-score)” value [15] was -0.146, the “glycan array binding signal (z-score)” value [16] was 0.387 and the “glycan array binding signal (z-score)” value [17] was 0.132. For the same binder, the “glycan array binding signal (z-score)” value [18] was -0.305.
